Assay results taken from the supplement of paper PMC8183993.
Counter-ions that a name gives are not always drawn. ± gives the standard deviation of the averaged measurements. Over roughly 3,200 compounds, “nuclei count (viability) relative to DMSO” has its median near 99; the lowest 2% begin near 16. Some of the results follow.

tested on: U2OS; test: nuclei count (viability) relative to DMSO (% of DMSO); higher = more viable cells; conditions: 10 µM; 24 h
Description: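 Primary image-based screen in U2OS cells: compounds at 10 uM for 24 h, then a 1 h o-propargyl-puromycin (OPP) pulse, click labelling, and high-throughput microscopy. Mean cytoplasmic OPP intensity and nuclei count were normalised to DMSO wells within each plate (DMSO = 100) and averaged over triplicate plates.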

First: O=C(O)C1=CCCN(CCOC(c2ccc(C(F)(F)F)cc2)c2ccc(C(F)(F)F)cc2)C1 [CI 966 hydrochloride]
Second: Fc1ccc(C(OCCN2CCN(C/C=C/c3ccccc3)CC2)c2ccc(F)cc2)cc1
The nuclei count of the first is lower: 96.9 for the first, 97.1 for the second.

First: CN1[C@@H]2C[C@@H](OC(=O)[C@H](CO)c3ccccc3)C[C@H]1[C@@H]1O[C@@H]12 [Scopolamine hydrobromide]
Second: CC(N)C(O)c1ccccc1 (configuration not stated) [Phenylpropanolamine hydrochloride]
The nuclei count of the first is higher: 102 for the first, 101 for the second.

Compared with `CN1[C@@H]2C[C@@H](OC(=O)[C@H](CO)c3ccccc3)C[C@H]1[C@@H]1O[C@@H]12` [Scopolamine HBr], `CN1C2CCC1CC(OC(c1ccccc1)c1ccc(Cl)cc1)C2` (configuration not stated) is lower in nuclei count: 99 for the first, 83.5 for the second.

Going from `CN1[C@@H]2C[C@@H](OC(=O)[C@H](CO)c3ccccc3)C[C@H]1[C@@H]1O[C@@H]12` [Scopolamine hydrochloride] to `CCOC(=O)c1cncn1[C@H](C)c1ccccc1` [Etomidate], the nuclei count falls from 104 to 94.25 ± 0.25.

First: Cc1ncsc1CCCl [Chlormethiazole hydrochloride]
Second: Cc1nnc2n1-c1sc(CCC(=O)N3CCOCC3)cc1C(c1ccccc1Cl)=NC2
The nuclei count of the first is lower: 85.2 for the first, 102 for the second.

Compared with `CN1CCc2cc3c(cc2C1C1OC(=O)c2c1ccc1c2OCO1)OCO3` (single isomer, unassigned; (+)) [(+)-Bicuculline], `C[N+]1(C)CCc2cc3c(cc2[C@H]1[C@@H]1OC(=O)c2c1ccc1c2OCO1)OCO3` [(-)-Bicuculline methiodide] is lower in nuclei count: 100 ± 5.5 for the first, 90.9 for the second.

Compared with `CC(O)(CS(=O)(=O)c1ccc(F)cc1)C(=O)Nc1ccc(C#N)c(C(F)(F)F)c1` (configuration not stated) [Bicalutamide], `O=C(CCCN1CCC2(CC1)C(=O)NCN2c1ccccc1)c1ccc(F)cc1` [Spiperone hydrochloride] is lower in nuclei count: 103 for the first, 39.1 for the second.

Going from `CCN1CCN(C(=O)Cc2ccc(Nc3ncc(F)c(Nc4ccc(C(=O)Nc5ccccc5Cl)cc4)n3)cc2)CC1` [Aurora A Inhibitor I] to `O=C(CCCN1CCC2(CC1)C(=O)NCN2c1ccccc1)c1ccc(F)cc1` [Spiperone], the nuclei count rises from 51.4 to 97.7.

Compared with `NCC1(CC(=O)O)CCCCC1` [Gabapentin], `CCCCC1(C2CCCC2)Cc2cc(OCCCC(=O)O)c(Cl)c(Cl)c2C1=O` (configuration not stated) is higher in nuclei count: 93.6 for the first, 102 for the second.

Going from `O=c1cccc2n1C[C@@H]1CNC[C@H]2C1` [Cytisine (Baphitoxine, Sophorine)] to `CN1CC[C@@H]2CN3CCc4cccc(c43)[C@@H]2C1` [SDZ SER 082 fumarate], the nuclei count rises from 85 to 100.

First: O=c1cccc2n1C[C@@H]1CNC[C@H]2C1 [(-)-Cytisine]
Second: c1ccc([C@@H]2C[C@H]2NC2CCNCC2)cc1
The nuclei count of the first is lower: 99.6 for the first, 103 for the second.

First: O=[N+]([O-])O[C@H]1CO[C@H]2[C@@H]1OC[C@H]2O[N+](=O)[O-] [Isosorbide dinitrate]
Second: C[C@@H]1C[C@@H]([C@H](O)CC2CC(=O)NC(=O)C2)C(=O)[C@@H](C)C1 [Cycloheximide]
The nuclei count of the first is higher: 97.4 for the first, 41.8 ± 9.8 for the second.

Going from `C=C1CC[C@@]2(O)[C@H]3Cc4ccc(O)c5c4[C@@]2(CCN3CC2CC2)[C@H]1O5` [Nalmefene hydrochloride] to `NC(N)=Nc1ccc2[nH]c3c(c2c1)C[C@@]1(O)[C@H]2Cc4ccc(O)c5c4[C@@]1(CCN2CC1CC1)[C@H]3O5` [GNTI dihydrochloride], the nuclei count rises from 97.1 to 101.

Compared with `O=c1[nH]oc2c1CCNC2` [THIP Hydrochloride], `c1ccc2c(c1)OCC(C1=NCCN1)O2` (configuration not stated) [Idazoxan hydrochloride] is lower in nuclei count: 109 for the first, 72.3 ± 2.1 for the second.

Compared with `O=c1[nH]oc2c1CCNC2` [THIP hydrochloride], `CCC1(C2=NCCN2)Cc2ccccc2O1` (configuration not stated) [Efaroxan hydrochloride] is higher in nuclei count: 104 for the first, 105 for the second.

Going from `C[N+]1(C)CCc2cc3c(cc2[C@H]1[C@@H]1OC(=O)c2c1ccc1c2OCO1)OCO3` [(-)-Bicuculline methochloride] to `COc1ccc(CC2NCCc3cc(OC)c(OC)cc32)cc1OC` (configuration not stated) [Tetrahydropapaverine HCl], the nuclei count rises from 99.6 to 100.

`CCOC(=O)c1ncn2c1[C@@H]1CCCN1C(=O)c1cc(OC)ccc1-2` and `CC[C@@H](CO)NC(=O)[C@@H]1C=C2c3cccc4[nH]cc(c34)C[C@H]2N(C)C1` [Methylergometrine maleate] are within error of each other in nuclei count: 102 for the first, 95 ± 13 for the second.

Compared with `CN(C)c1ccc(/C=C2\CCCN=C2c2cccnc2)cc1` [DMAB-anabaseine dihydrochloride], `COC1(C[S@+]([O-])c2ccccc2)CCN(CCc2c[nH]c3ccc(F)cc23)CC1` is lower in nuclei count: 97.5 for the first, 97.2 for the second.

Going from `O=C(O)c1nn(Cc2ccc(Cl)cc2Cl)c2ccccc12` [Lonidamine] to `Cc1cc(C(C#N)c2ccc(Cl)cc2)c(Cl)cc1NC(=O)c1cc(I)cc(I)c1O` (configuration not stated) [Closantel], the nuclei count falls from 95.1 to 88.

Going from `CC(C)(C)c1cc(C=C(C#N)C#N)cc(C(C)(C)C)c1O` [Tyrphostin 9 (SF 6847)] to `CCCCCC[C@H]1C(=O)O[C@H](C)[C@H](NC(=O)c2cccc(NC=O)c2O)C(=O)O[C@@H](C)[C@@H]1OC(=O)CC(C)C` [Antimycin A], the nuclei count rises from 65.1 to 107.

Compared with `CN1[C@@H]2CC[C@H]1C[C@@H](OC(=O)c1cc(Cl)cc(Cl)c1)C2`, `CC[N+]1(C)CCCC(OC(=O)C(O)(c2ccccc2)c2ccccc2)C1` (configuration not stated) [Pipenzolate bromide] is lower in nuclei count: 111 for the first, 101 for the second.

Going from `NC(C(=O)O)c1nn[nH]n1` (racemic) [(RS)-(Tetrazol-5-yl)glycine] to `CCC[C@@H]1CC2=CC(=O)CC[C@]2(C)[C@H]2CC[C@@]3(C)[C@@H](CC[C@@]3(O)CCC(=O)O)[C@H]12`, the nuclei count falls from 105 to 104.

Compared with `c1ccc(C2CNCc3ccccc32)cc1` (configuration not stated) [4-Phenyl-1,2,3,4-tetrahydroisoquinoline hydrochloride], `CC1C=CC=CCCC=CC=CC=CC=CC(OC2OC(C)C(O)C(N)C2O)CC2OC(O)(CC(O)C(O)CCC(O)CC(O)CC(O)CC(=O)OC(C)C(C)C1O)CC(O)C2C(=O)O` (configuration not stated) [Nystatin (Mycostatin)] is higher in nuclei count: 103 for the first, 105 for the second.

`C/C=C(/C)C(=O)O[C@H]1C(C)=C2[C@H]([C@@H]1OC(=O)CCCCCCC)[C@@](C)(OC(C)=O)C[C@H](OC(=O)CCC)[C@@]1(O)[C@H]2OC(=O)[C@@]1(C)O` [Thapsigargin] showed a nuclei count of 29 ± 23.
